Reference: PubChem BioAssay (Tox21)
Values joined by “and” are separate entries in the source; they are usually repeats but may differ in a detail not shown here. Equal values may be shown once. Inconclusive means that the source gave no clear call. Such entries were picked first, then a sample of the others. For some assays here: A potency beside an inconclusive call is a rough fit, not a confirmed value. Active and inactive are the calls of the source. Unless noted, calls follow the shape of the dose curve; as a rule, active = well fitted curve in the direction sought with a large enough effect in the repeat runs; inconclusive = weak or mixed curves; inactive = no such curve, though single readings can be large; an effect the other way counts as inactive or inconclusive.

Columns and labels:
[1] = qHTS assay to identify small molecule that activate the aryl hydrocarbon receptor (AhR) signaling pathway - cell viability counter screen (AID 743086); also: nearly all actives have a fitted effect of over 45% in size;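 as to viability change, negative = cytotoxic: HepG2 liver cells carrying the AhR DRE luciferase reporter; % is scaled to controls: 0 for no effect and ±100 for the full control effect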
How it was run: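 HepG2-AhR-luc (HG2L7.5c1) cells, 4000/well, were preincubated 5 h at 37C, exposed to compound in qHTS format for 24 hr at 37C, then given CellTiter-Fluor for 30 min; viability was read as fluorescence in the reporter wells.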

[2] = target: Peroxisome proliferator-activated receptor gamma (Homo sapiens) (UniProt P37231); assay: qHTS assay to identify small molecule agonists of the peroxisome proliferator-activated receptor gamma (PPARg) signaling pathway (AID 743094; active = well fitted activation curve with a large enough effect in the signal ratio in the repeat runs, not every such curve was filed as active; inconclusive = weak or mixed curves, or effect the other way; inactive = no such curve, though single readings can be large or run the other way; the % refers to the signal ratio; as to activation: % is scaled to controls: 0 for no effect and ±100 for the full control effect); details: HEK293H PPARg-UAS-bla, beta-lactamase FRET ratio, 17 h; activation: at 57 µM (top of the series) unless noted
Sequence of UniProt P37231 (P37231 whole entry, looked up): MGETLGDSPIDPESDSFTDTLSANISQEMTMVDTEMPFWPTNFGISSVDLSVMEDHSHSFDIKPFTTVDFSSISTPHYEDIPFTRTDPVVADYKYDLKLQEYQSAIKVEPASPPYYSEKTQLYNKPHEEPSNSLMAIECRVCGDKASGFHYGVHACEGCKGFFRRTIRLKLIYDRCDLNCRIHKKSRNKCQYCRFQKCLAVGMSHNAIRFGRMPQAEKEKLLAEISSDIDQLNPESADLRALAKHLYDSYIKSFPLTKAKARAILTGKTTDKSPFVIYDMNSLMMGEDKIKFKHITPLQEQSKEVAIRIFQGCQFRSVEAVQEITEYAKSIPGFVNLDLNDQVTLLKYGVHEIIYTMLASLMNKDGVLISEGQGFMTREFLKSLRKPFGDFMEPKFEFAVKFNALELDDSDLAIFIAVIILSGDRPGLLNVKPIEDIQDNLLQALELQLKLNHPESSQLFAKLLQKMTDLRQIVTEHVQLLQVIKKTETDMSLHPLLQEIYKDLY
How it was run: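 Quantitative HTS agonist mode: stable HEK293H line with UAS-beta-lactamase reporter under PPARg control, 17 h compound exposure at 37C, fluorescence after 1 h FRET substrate loading at room temperature.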

[3] = target: Peroxisome proliferator-activated receptor gamma (Homo sapiens) (UniProt P37231); assay: qHTS assay to identify small molecule antagonists of the peroxisome proliferator-activated receptor gamma (PPARg) signaling pathway (AID 743191; calls by dose curve; also: nearly all actives have a fitted effect of over 30% in size); details: HEK293H PPARg-UAS-bla, beta-lactamase ratio, antagonist, 17 h; ratio activity, negative = inhibition: at 62.6 µM (top of the series) unless noted
How it was run: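 GeneBLAzer PPARg UAS-bla HEK293H cells carrying a UAS-driven beta-lactamase reporter were plated at 3000 cells/well, preincubated 5 h at 37C, then given compound for 17 h at 37C; LiveBLAzer B/G FRET substrate was read after 1 h at room temperature.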

[4] = qHTS assay to identify small molecule antagonists of the peroxisome proliferator-activated receptor gamma (PPARg) signaling pathway - cell viability counter screen (AID 743194); details: PPARg-bla HEK293H viability, CellTiter-Glo luminescence, 17 h, co-treated with 50 nM rosiglitazone; activity change, negative = cytotoxicity: at 62.6 µM (top of the series) unless noted; also: nearly all actives have a fitted effect of over 55% in size
How it was run: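 PPARg-UAS-bla HEK293H cells were plated, rested 5 h at 37 C, then treated with compounds plus rosiglitazone (50 nM final) for 17 h at 37 C; viability was then read by CellTiter-Glo luminescence after 30 min at room temperature.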

[5] = qHTS assay for small molecule agonists of the antioxidant response element (ARE) signaling pathway (AID 743202; active = well fitted activation curve with a large enough effect in the signal ratio in the repeat runs, not every such curve was filed as active; inconclusive = weak or mixed curves, or effect the other way; inactive = no such curve, though single readings can be large or run the other way; the % refers to the signal ratio); details: HepG2 ARE-bla reporter, beta-lactamase FRET, 16 h; activation: at 73.3 µM (top of the series) unless noted
How it was run: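 Read-out: LiveBLAzer B/G FRET substrate fluorescence after 2 h at room temperature, following 16 h compound treatment at 37 C of HepG2 cells carrying an ARE-driven beta-lactamase reporter.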

[6] = qHTS assay for small molecule agonists of the antioxidant response element (ARE) signaling pathway - cell viability counter screen (AID 743203; calls by dose curve; also: nearly all actives have a fitted effect of over 55% in size); details: ARE-bla HepG2 viability, CellTiter-Glo luminescence, 16 h; viability change, negative = cytotoxic: at 73.3 µM (top of the series)
How it was run: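 Seeded at 2,000 cells/well, ARE-bla HepG2 cells were incubated 5 hrs before compound addition. After 16 hrs of treatment at 37C with 5% CO2, CellTiter-Glo reagent was added and luminescence read 30 min later.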

[7] = qHTS assay for small molecule activators of the heat shock response signaling pathway - cell viability counter screen (AID 743209); details: HSE-bla HeLa viability, CellTiter-Glo luminescence, 5 h; activity change, negative = cytotoxicity: at 62.6 µM (top of the series) unless noted; also: nearly all actives have a fitted effect of over 50% in size; as to activity change, negative = cytotoxicity: % is scaled to controls: 0 for no effect and ±100 for the full control effect
How it was run: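 First, HSE-bla HeLa cells were seeded at 1500 cells/well and kept overnight at 37 C. Next, compounds were pinned in and incubated 5 h. After the FRET substrate step, CellTiter-Glo was added and luminescence read 30 min later.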

[8] = qHTS assay for small molecule activators of the heat shock response signaling pathway (AID 743210; active = well fitted activation curve with a large enough effect in the signal ratio in the repeat runs, with a control signal flat, not every such curve was filed as active; inconclusive = weak or mixed curves; the % refers to the signal ratio); details: HeLa HSE-bla reporter, beta-lactamase ratio, 5 h; activation: at 62.6 µM (top of the series) unless noted
How it was run: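 HSE-bla HeLa cells (beta-lactamase reporter under heat shock response elements) were exposed to compounds for 5 h at 37 C, then loaded with LiveBLAzer B/G FRET substrate for 2.5 h at room temperature before fluorescence reading.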

[9] = qHTS assay to identify small molecule agonists of the peroxisome proliferator-activated receptor delta (PPARd) signaling pathway - cell viability counter screen (AID 743211); details: PPARd-bla HEK293H viability, CellTiter-Glo luminescence, 17 h; activity change, negative = cytotoxicity: at 62.6 µM (top of the series) unless noted; also: nearly all actives have a fitted effect of over 55% in size
How it was run: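 HEK293H PPARd-bla, 3000 cells/well; 5 h preincubation 37C/5% CO2; cpd in DMSO, 17 h 37C; B/G FRET substrate 2 h RT; CellTiter-Glo 30 min RT, luminescence.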

[10] = qHTS assay to identify small molecule agonists of the farnesoid-X-receptor (FXR) signaling pathway - cell viability counter screen (AID 743218); details: FXR-bla HEK293T viability, CellTiter-Glo luminescence, 16 h; viability change, negative = cytotoxic: at 62.6 µM (top of the series) unless noted; also: nearly all actives have a fitted effect of over 45% in size
How it was run: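 Cytotoxicity counter-screen run in parallel, same wells: FXR-UAS-bla HEK 293T cells dosed 16 h at 37 C, viability read by CellTiter-Glo luminescence after 30 min at room temperature.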

[11] = target: Vitamin D3 receptor (Homo sapiens) (UniProt P11473); assay: qHTS assay to identify small molecule agonists of the vitamin D receptor (VDR) signaling pathway (AID 743222; calls by dose curve); details: HEK293T VDR-UAS-bla, beta-lactamase FRET ratio, 16 h; activation: at 63.5 µM (top of the series) unless noted
Sequence of UniProt P11473 (P11473 whole entry, looked up): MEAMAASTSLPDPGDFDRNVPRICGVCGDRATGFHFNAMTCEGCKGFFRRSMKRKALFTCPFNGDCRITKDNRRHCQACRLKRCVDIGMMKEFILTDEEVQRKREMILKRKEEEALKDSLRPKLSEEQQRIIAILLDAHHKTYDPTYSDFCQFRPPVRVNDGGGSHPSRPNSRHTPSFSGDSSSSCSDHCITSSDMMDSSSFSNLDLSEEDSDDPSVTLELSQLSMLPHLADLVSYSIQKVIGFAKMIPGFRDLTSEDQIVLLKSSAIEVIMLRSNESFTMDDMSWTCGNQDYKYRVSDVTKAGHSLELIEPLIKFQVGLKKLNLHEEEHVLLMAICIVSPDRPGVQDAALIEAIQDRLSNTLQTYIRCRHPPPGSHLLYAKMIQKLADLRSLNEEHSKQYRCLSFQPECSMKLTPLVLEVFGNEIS
How it was run: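 Quantitative HTS agonist-mode screen: compounds in DMSO were pin-transferred onto VDR-bla cells and incubated 16 h at 37C, 5% CO2. Reporter activity was detected with LiveBLAzer B/G FRET substrate after 2 h at room temperature.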

[12] = target: Vitamin D3 receptor (Homo sapiens) (UniProt P11473); assay: qHTS assay to identify small molecule antagonists of the vitamin D receptor (VDR) signaling pathway (AID 743223; active = well fitted inhibition curve with a large enough effect in the signal ratio in the repeat runs, not every such curve was filed as active; inconclusive = weak or mixed curves, or effect the other way; inactive = no such curve, though single readings can be large or run the other way; the % refers to the signal ratio; as to activity change, negative = inhibition: % is scaled to controls: 0 for no effect and ±100 for the full control effect); details: VDR-UAS-bla HEK293T, beta-lactamase FRET ratio, 16 h; activity change, negative = inhibition: at 61 µM (top of the series) unless noted
How it was run: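 Antagonist mode uses 1alpha,25-dihydroxyvitamin D3 at 3 nM final as stimulus. VDR-bla cells receive compounds in DMSO, incubate 16 h at 37C, then a beta-lactamase FRET substrate for 2 h at room temperature before fluorescence measurement.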

[13] = qHTS assay to identify small molecule agonists of the vitamin D receptor (VDR) signaling pathway - cell viability counter screen (AID 743224); details: VDR-bla HEK293T viability, CellTiter-Glo luminescence, 16 h; activity change, negative = cytotoxicity: at 62.6 µM (top of the series); also: nearly all actives have a fitted effect of over 50% in size
How it was run: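 Viability is measured in the same wells as the VDR-bla reporter assay: after 16 h compound treatment and 2 h substrate loading, CellTiter-Glo is added and luminescence read 30 min later.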

[14] = target: Aryl hydrocarbon receptor (Homo sapiens) (UniProt P35869); assay: qHTS assay to identify small molecule that activate the aryl hydrocarbon receptor (AhR) signaling pathway (AID 743085); also: nearly all actives have a fitted effect of over 15% in size
Sequence of UniProt P35869 (P35869 whole entry, looked up): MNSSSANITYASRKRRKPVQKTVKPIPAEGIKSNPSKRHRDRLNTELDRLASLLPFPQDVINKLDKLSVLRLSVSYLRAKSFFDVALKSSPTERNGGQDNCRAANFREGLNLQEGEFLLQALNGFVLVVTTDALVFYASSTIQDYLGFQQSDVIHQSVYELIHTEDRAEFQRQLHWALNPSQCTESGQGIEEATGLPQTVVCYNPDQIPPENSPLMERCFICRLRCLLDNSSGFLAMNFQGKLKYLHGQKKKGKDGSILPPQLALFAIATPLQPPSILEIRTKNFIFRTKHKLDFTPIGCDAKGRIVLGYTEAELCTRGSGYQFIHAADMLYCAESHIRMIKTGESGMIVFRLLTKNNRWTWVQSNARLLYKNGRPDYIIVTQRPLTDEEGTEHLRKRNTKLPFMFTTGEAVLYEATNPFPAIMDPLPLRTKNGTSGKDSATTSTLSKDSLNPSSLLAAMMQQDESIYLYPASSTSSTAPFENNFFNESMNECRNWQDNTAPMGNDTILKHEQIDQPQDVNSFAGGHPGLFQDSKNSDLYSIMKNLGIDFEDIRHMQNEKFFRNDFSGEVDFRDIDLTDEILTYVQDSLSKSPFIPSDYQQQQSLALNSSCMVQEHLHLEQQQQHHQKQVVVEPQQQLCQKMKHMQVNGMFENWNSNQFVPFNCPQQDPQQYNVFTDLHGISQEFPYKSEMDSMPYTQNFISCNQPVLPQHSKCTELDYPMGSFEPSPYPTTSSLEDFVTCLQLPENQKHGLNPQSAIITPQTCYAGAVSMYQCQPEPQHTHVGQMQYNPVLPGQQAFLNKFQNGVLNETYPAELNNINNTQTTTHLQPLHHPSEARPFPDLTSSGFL
How it was run: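 Cell line HG2L7.5c1 (human hepatoma, 20× DRE-luc). Plated, 5 h 37C, compound/DMSO added, 24 h 37C. CellTiter-Fluor 30 min 37C → fluorescence; then ONE-Glo 30 min RT → luminescence.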

[15] = target: Peroxisome proliferator-activated receptor delta (Homo sapiens) (UniProt Q03181); assay: qHTS assay to identify small molecule agonists of the peroxisome proliferator-activated receptor delta (PPARd) signaling pathway (AID 743212; calls by dose curve); details: HEK293H PPARd-UAS-bla, beta-lactamase FRET ratio, 17 h; activation: at 62.6 µM (top of the series) unless noted
Sequence of UniProt Q03181 (Q03181 whole entry, looked up): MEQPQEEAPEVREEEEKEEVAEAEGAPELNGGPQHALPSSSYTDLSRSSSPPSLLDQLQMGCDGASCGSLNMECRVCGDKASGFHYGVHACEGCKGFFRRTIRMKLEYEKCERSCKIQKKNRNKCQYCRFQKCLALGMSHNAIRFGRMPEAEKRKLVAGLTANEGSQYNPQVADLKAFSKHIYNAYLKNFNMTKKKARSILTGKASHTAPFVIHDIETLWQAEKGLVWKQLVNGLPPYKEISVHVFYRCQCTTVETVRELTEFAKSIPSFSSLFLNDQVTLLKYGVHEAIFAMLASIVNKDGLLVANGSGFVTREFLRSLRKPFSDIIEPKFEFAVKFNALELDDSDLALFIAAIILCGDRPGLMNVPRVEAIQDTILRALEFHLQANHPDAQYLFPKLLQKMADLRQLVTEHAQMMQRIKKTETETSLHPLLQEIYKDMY
How it was run: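 GeneBLAzer PPARd UAS-bla HEK293H cells (beta-lactamase reporter under UAS control), plated and rested 5 h at 37 C, then exposed to compounds in DMSO at 37 C; LiveBLAzer B/G FRET substrate added, 2 h room temperature, fluorescence read.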

[16] = target: Peroxisome proliferator-activated receptor delta (Homo sapiens) (UniProt Q03181); assay: qHTS assay to identify small molecule antagonists of the peroxisome proliferator-activated receptor delta (PPARd) signaling pathway (AID 743215; active = well fitted inhibition curve with a large enough effect in the signal ratio in the repeat runs, not every such curve was filed as active; inconclusive = weak or mixed curves, or effect the other way; inactive = no such curve, though single readings can be large or run the other way; the % refers to the signal ratio;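 also: cells stimulated with agonist L165041 at 300 nM final during compound exposure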); details: HEK293H PPARd-UAS-bla, beta-lactamase FRET ratio, antagonist, 17 h; ratio activity, negative = inhibition: at 62 µM (top of the series) unless noted
How it was run: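 Inhibition of L165041-driven (300 nM final) PPARd signaling is scored in HEK293H UAS-bla cells. Exposure lasts 17 h at 37 C; beta-lactamase activity is then read by FRET substrate fluorescence after 2 h at room temperature.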

[17] = target: Bile acid receptor (Homo sapiens) (UniProt Q96RI1); assay: qHTS assay to identify small molecule agonists of the farnesoid-X-receptor (FXR) signaling pathway (AID 743220; active = well fitted activation curve with a large enough effect in the signal ratio in the repeat runs, not every such curve was filed as active; inconclusive = weak or mixed curves, or effect the other way; the % refers to the signal ratio); details: HEK293T FXR-UAS-bla, beta-lactamase FRET ratio, 16 h; activation: at 62.6 µM (top of the series) unless noted
Sequence of UniProt Q96RI1 (Q96RI1 whole entry, looked up): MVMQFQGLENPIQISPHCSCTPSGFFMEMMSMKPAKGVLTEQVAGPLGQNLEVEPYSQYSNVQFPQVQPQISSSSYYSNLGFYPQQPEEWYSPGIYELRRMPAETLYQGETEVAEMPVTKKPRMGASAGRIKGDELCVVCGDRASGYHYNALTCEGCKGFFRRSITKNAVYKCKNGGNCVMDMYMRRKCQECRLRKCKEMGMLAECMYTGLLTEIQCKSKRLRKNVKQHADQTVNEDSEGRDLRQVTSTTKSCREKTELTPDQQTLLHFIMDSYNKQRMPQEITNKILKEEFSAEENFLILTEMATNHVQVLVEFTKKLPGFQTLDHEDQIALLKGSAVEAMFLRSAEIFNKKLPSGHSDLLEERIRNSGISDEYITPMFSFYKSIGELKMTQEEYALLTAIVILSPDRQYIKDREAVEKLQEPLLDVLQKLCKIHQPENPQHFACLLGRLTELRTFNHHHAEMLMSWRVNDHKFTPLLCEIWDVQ
How it was run: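 Beta-lactamase reporter under UAS control in GeneBLAzer FXR HEK 293T cells (5000/well) measured with LiveBLAzer FRET substrate after 2 h at room temperature. Compound exposure lasted 16 h at 37C.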

[18] = qHTS assay to identify small molecule antagonists of the peroxisome proliferator-activated receptor delta (PPARd) signaling pathway - cell viability counter screen (AID 743213); details: PPARd-bla HEK293H viability, CellTiter-Glo luminescence, 17 h; viability change, negative = cytotoxic: at 62 µM (top of the series) unless noted; also: nearly all actives have a fitted effect of over 50% in size
How it was run: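 Cytotoxicity counter screen: CellTiter-Glo luminescence read 30 min after addition, in the same wells as the reporter assay. There, PPARd UAS-bla HEK293H cells (3000/well) were treated 17 h at 37 C with compound and 300 nM L165041.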

[19] = target: Bile acid receptor (Homo sapiens) (UniProt Q96RI1); assay: qHTS assay to identify small molecule antagonists of the farnesoid-X-receptor (FXR) signaling pathway (AID 743217; active = well fitted inhibition curve with a large enough effect in the signal ratio in the repeat runs, not every such curve was filed as active; inconclusive = weak or mixed curves, or effect the other way; inactive = no such curve, though single readings can be large or run the other way; the % refers to the signal ratio); details: HEK293T FXR-UAS-bla, beta-lactamase ratio, CDCA-stimulated, 16 h; activity change, negative = inhibition: at 62.6 µM (top of the series) unless noted
How it was run: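 Antagonist mode against 50 uM (final) chenodeoxycholic acid stimulation in FXR-bla HEK 293T cells, 16 h at 37 °C. Inhibition detected as reduced beta-lactamase activity via LiveBLAzer B/G FRET fluorescence after 2 h at room temperature.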

[20] = qHTS assay to identify small molecule antagonists of the farnesoid-X-receptor (FXR) signaling pathway - cell viability counter screen (AID 743221; active = well fitted cell-killing curve with a large enough effect in the repeat runs, not every such curve was filed as active; inconclusive = weak or mixed curves, or effect the other way; inactive = no such curve, though single readings can be large or run the other way; also: nearly all actives have a fitted effect of over 50% in size); details: FXR-bla HEK293T viability, CellTiter-Glo luminescence, 16 h; activity change, negative = cytotoxicity: at 62.6 µM (top of the series) unless noted
How it was run: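 Luminescence from CellTiter-Glo measures cytotoxicity in GeneBLAzer FXR-UAS-bla HEK 293T cells. Cells were exposed to compounds with 50 uM chenodeoxycholic acid (final) for 16 h at 37 C, in wells also used for the reporter readout.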
Potency is read from the fitted curve at half-maximal effect; tags tell the direction and shape of the fitted curve or compound fluorescence and quenching.

CNc1ccc(O)cc1
active: Potency [4] 43.6 µM | Potency [9] 38.8 µM | Potency [13] 38.8 µM
inconclusive: Potency [1] 61 µM [falling, partial curve] | Potency [2] 19.5 µM [activator, full curve] | Potency [3] 24.5 µM [fluorescent, full curve] | Potency [5] 68.5 µM [falling, partial curve] | Potency [6] 68.5 µM [cytotoxic, single point] | Potency [7] 54.8 µM [cytotoxic, single point] | Potency [8] 57 µM | Potency [10] 54.8 µM [cytotoxic] | Potency [11] 38.8 µM [fluorescent, partial curve] | Potency [12] 54.8 µM

COCCOc1cc2cc(C(=O)NC3CCN(C(C)C)CC3)n(CC(=O)Nc3ccc(Cl)cn3)c2cn1
inconclusive: activity change, negative = cytotoxicity [7] -40.2% | activity change, negative = inhibition [12] -24.1%
active: Potency [14] 48 µM

CCCCCCCCOc1ccc(C(=O)O)cc1
active: Potency [15] 7.67 µM
inconclusive: activation [2] -14.9% | Potency [3] 54.3 µM [rising, single point] | Potency [5] 67.8 µM [rising, single point] | Potency [7] 48.4 µM [cytotoxic, partial curve, poor fit] | Potency [8] 54.3 µM [rising, single point] | Potency [17] 38.5 µM [activator, partial curve, poor fit] | activation [11] 3.18%
inactive: Potency [1] | Potency [16]

C=CC(=O)OCCn1c(=O)n(CCOC(=O)C=C)c(=O)n(CCOC(=O)C=C)c1=O
inconclusive: Potency [2] 21.9 µM [fluorescent, single point] | Potency [3] 12.3 µM | Potency [5] 30.6 µM | Potency [8] 20.3 µM | Potency [15] 61.6 µM [single point] | Potency [19] 21.9 µM | Potency [17] 17.4 µM [falling, partial curve, poor fit] | Potency [11] 21.9 µM [single point] | Potency [12] 19.5 µM [rising, partial curve]
active: Potency [1] 38.6 µM | Potency [4] 13.8 µM | Potency [7] 13.8 µM | Potency [9] 19.5 µM | Potency [18] 19.5 µM | Potency [16] 13.8 µM | Potency [10] 24.5 µM | Potency [20] 34.7 µM

O=C1OC2(c3cc(Br)c(O)c(Br)c3Oc3c2cc(Br)c(O)c3Br)c2c(Cl)c(Cl)c(Cl)c(Cl)c21
active: Potency [1] 9.7 µM and 5.88 µM
inconclusive: Potency [2] 9.79 µM [inhibitor, full curve] and 37.4 µM [partial curve, poor fit] | Potency [6] 77 µM [cytotoxic, single point] | Potency [9] 55 µM [cytotoxic, single point] | Potency [18] 61.8 µM [cytotoxic, single point] | Potency [16] 55 µM [rising, single point] | Potency [10] 61.8 µM [cytotoxic, single point] | Potency [20] 55 µM [falling, single point] | Potency [12] 55 µM [rising, partial curve] | activity change, negative = inhibition [12] -50.2%
